Measurements taken from patent publication US20180086837A1 (Ablynx, published 2018).

These binders were tested against human CXCR4 and human CD4 co-expressed on the same cell surface (human, UniProt P61073 1-352) (assay: cell-based or functional assay).

Row | Binder | IC50, MT-4 + NL4.3 (X4) [nM] | IC50, PBMC + NL4.3 (X4) [nM] | IC50, U87 + NL4.3 (X4) [nM]
1 | 281F12-9GS-03F11 (bispecific antibody, not shown: small tags and cut ends) EVQLVESGGGLVQAGDSLRLSCAASGRAFSRYAMGWFRQAPGKEREFVAAIGWGPSKTNYADSVKGRFTISRDNAKNTVYLQMNTLKPEDTAVYSCAAKFVNTDSTWSRSEMYTYWGQGTQVTVSSGGGSGGGGSEVQLVESGGGSVQPGGSLTLSCGTSGRTFNVMGWFRQAPGKEREFVAAVRWSSTGIYYTQYADSVKSRFTISRDNAKNTVYLEMNSLKPEDTAVYYCAADTYNSNPARWDGYDFRGQGTQVTVSS | 0.2 | 0.03 | 0.53

Each binder was assayed against T1, human CXCR4 (human, UniProt P61073 1-352) (assay: cell-based or functional assay).

Row | Binder | IC50, HIV1 neutralisation (NL4.3 in MT-4 cells) [nM]
2 | Nanobody 15G11 (VHH) VHH: EVQLVESGGGLVQAGDSLRVSCAASGRTSSYAMAWFRQAPGKEREFVGTISRTNSRTKYADFVEGRFTISRDNAKSTLSLQMTSLKPEDTAVYYCAAKWTGNSYHDYTWSKVDEYNVWGQGTQVTVSS | 17.7

Target: T1, human CXCR4
Experiment: cell-based or functional assay
Remark: another data set of the same source

Row | Binder | IC50, HIV-1 NL4.3 (X4) infectivity in PBMC [nM] | IC50, HIV-1 UG270 (clade D) infectivity in PBMC [nM] | IC90, HIV-1 CM237 (clade B) infectivity in PBMC [nM] | IC50, HIV-1 CM237 (clade B) infectivity in PBMC [nM] | IC90, HIV-1 NL4.3 (X4) infectivity in PBMC [nM] | IC90, HIV-1 UG270 (clade D) infectivity in PBMC [nM]
3 | Nanobody 283F1 (VHH, Purified Nanobody) VHH: EVQLVESGGGLVQAGGSLRLSCVASVNIFGSIAMAWYRQAPGKQRNLVASISSGGRINYADSRKGRFTISRDNTKNTVHLQMNSLEPEDTAVYYCAAGRIGQRTLTFTPDYWGQGTQVTVSS | 0.76 | 1 | 5.1 | – | – | –
4 | Nanobody 281D4 (VHH, Purified Nanobody) VHH: EVQLVESGGGLVQAGGSLRLSCAASGGTFNNYAMGWFRRAPGKEREFVAAISRSGVRTGVSALYGDSVKDRFTISRDNAKNTLYLQMNKMKPEDTAVYTCAASAIGSGALRRFEYDSSGQGTQVTVSS | 1.2 | 7.8 | 10 | 3.3 | 3.8 | 27
5 | Nanobody 281A5 (VHH, Purified Nanobody) VHH: EVQLVESGGGLVQAGGSLRLSCAASGRTFNNYAMGWFRRAPGKEREFVAAITRSGVRSGVSAIYGDSVKDRFTISRDNAKNTLYLQMNSLKPEDTAVYTCAASAIGSGALRRFEYDYSGQGTQVTVSS | 23 | – | – | – | – | –
6 | Nanobody 281A6 (VHH, Purified Nanobody) VHH: EVQLVESGGGLVQTGGSLRLSCAASGGTFNNYAMGWFRRAPGKEREFVAAISRSGVRTGVSALYGDSVKDRFTISRDNAKNTLYLQMNKMKPEDTAVYTCAASAIGSGALRRFEYDSSGQGTQVTVSS | 2.5 | 11 | 27 | 9.9 | 9.1 | 27
7 | Nanobody 281E10 (VHH, Purified Nanobody) VHH: EVQLVESGGGLVQAGGSLRLSCKASGGTFNNYAMGWFRRAPGKEREFVAAITRSGVRSGVSAIYGDSVKDRFTISRDNVKNTLYLQMNTLKPEDTAVYTCAASAIGSGALRRFEYDYSGQGTQVTVSS | 1.2 | 1.8 | 4 | 0.67 | 3.5 | 7.7
8 | Nanobody 283B6 (VHH, Purified Nanobody) VHH: EVQLVASGGGLVQAGGSLRLSCAVSGTTFSVATLGWYRQAPGQQRALVADISSGGSTNYADSVRGRFTISRDNAKNLAYLQMNSLKPEDTAVYYCNARTSGWRTRSNYWGQGTQVTVSS | 1.6 | 1.9 | 7.3 | 2 | 7.3 | 6.4
9 | Nanobody 283E2 (VHH, Purified Nanobody) VHH: EVQLVESGGGLVQAGGSLRLSCAVSGTTFSVATLGWYRQAPGQQRALVADISSGGSTNYADSVRGRFTISRDNAKNLAYLQMNSLKPEDTAVYYCNARTSGWRTRSNYWGQGTQVTVSS | 4.1 | 1.3 | 17 | 3.3 | 12 | 14
